# This is one part of the list.
# B1: PX9961U-pdi-543-24-543 (Parabacteroides distasonis) (protein)
# chain: EEPVGEFLPGQVESEENIEGIVTGAYAVLDGYYASDAINSGCSNWQFGDVVSDDAYKGGGGTGDQNQIHLMEIFNANPTGIDFEARWAALYEGIKRCNQAIRLLNGSEVKNKEQRLAEMRFLRGHYYFNLKIIYNQIPWIDETLVDPNEYNKKSNIEFSSDQLWEKILEEFSAAYKVLPESQADYGRPTKMAARAYMAKVYLYQSKWKECLEACDEVIQSGKYELFPDFRNVFLPENDNCSEIIFAIQLSINDGSPNNENGSYGDRLLPPGGPYPVYGFLRPTQNLVNAYKTDVKGLPYNDGKDVSENDYVDVRLDHTLARPNIPFMDVQLYDWTPREASVYGPYSPKKRLVSLNSTYYSPIWPYVNALNFYVIRYADLLLWRAEAAIETGDLETGRKYINMIRERAKNTQHVKTMDQSQDAANYKVGVYDEPFKSKNEAVQALRMERRLEMAHEGIRFFDLVRWGVADEVINAYIAKEKVFRSHLQNAHFVKGKHEYFPIPQSMIDICGTEVMKQNPGY
# Legend:
# Assay in all cases: glycan array binding signal (z-score within array); higher = stronger binding
# Details in all cases: glycan notation: IUPAC condensed, linker removed
# [1] = biological target: Fuc(a1-2)Gal(b1-4)GlcNAc(b1-3)Gal(b1-4)GlcNAc(b1-3)Gal(b1-4)GlcNAc
# Method in brief: (§1)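 From the Consortium for Functional Glycomics database, 3228 arrays were curated, keeping only those whose protein sequence was available. Binding is given as a within-array Z-score averaged across arrays sharing a protein sequence and across linkers. Negative Z-scores can be read as non-binding.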
# [2] = biological target: Fuc(a1-2)Gal(b1-4)GlcNAc(b1-3)GalNAc
# Method in brief: as §1
# [3] = biological target: Fuc(a1-2)Gal(b1-4)GlcNAc(b1-3)[Fuc(a1-2)Gal(b1-4)GlcNAc(b1-6)]GalNAc
# Method in brief: as §1
# [4] = biological target: Fuc(a1-2)Gal(b1-4)GlcNAc(b1-3)[Fuc(a1-3)[Gal(b1-4)]GlcNAc(b1-6)]Gal(b1-4)Glc
# Method in brief: as §1
# [5] = biological target: Fuc(a1-2)Gal(b1-4)GlcNAc(b1-6)GalNAc
# Method in brief: as §1
# [6] = biological target: Fuc(a1-2)Gal(b1-4)GlcNAc6S
# Method in brief: as §1
# [7] = biological target: Fuc(a1-2)Gal(b1-4)[Fuc(a1-3)]GlcNAc
# Method in brief: as §1
# [8] = biological target: Fuc(a1-2)Gal(b1-4)[Fuc(a1-3)]GlcNAc(b1-2)Man(a1-3)[Fuc(a1-2)Gal(b1-4)[Fuc(a1-3)]GlcNAc(b1-2)Man(a1-6)]Man(b1-4)GlcNAc(b1-4)[Fuc(a1-6)]GlcNAc
# Method in brief: as §1
# [9] = biological target: Fuc(a1-2)Gal(b1-4)[Fuc(a1-3)]GlcNAc(b1-2)[Fuc(a1-2)Gal(b1-4)[Fuc(a1-3)]GlcNAc(b1-4)]Man(a1-3)[Fuc(a1-2)Gal(b1-4)[Fuc(a1-3)]GlcNAc(b1-2)Man(a1-6)]Man(b1-4)GlcNAc(b1-4)GlcNAc
# Method in brief: as §1
# [10] = biological target: Fuc(a1-2)Gal(b1-4)[Fuc(a1-3)]GlcNAc(b1-3)Gal(b1-4)[Fuc(a1-3)]GlcNAc
# Method in brief: as §1
# [11] = biological target: Fuc(a1-2)Gal(b1-4)[Fuc(a1-3)]GlcNAc(b1-3)Gal(b1-4)[Fuc(a1-3)]GlcNAc(b1-3)Gal(b1-4)[Fuc(a1-3)]GlcNAc
# Method in brief: as §1
# [12] = biological target: Fuc(a1-2)Gal(b1-4)[Fuc(a1-3)]GlcNAc(b1-3)GalNAc
# Method in brief: as §1
# [13] = biological target: Fuc(a1-2)Gal(b1-4)[Fuc(a1-3)]GlcNAc(b1-3)[Neu5Ac(a2-6)Gal(b1-4)GlcNAc(b1-6)]Gal(b1-4)Glc
# Method in brief: as §1
# [14] = biological target: Fuc(a1-2)Gal3S(b1-4)GlcNAc
# Method in brief: as §1
# [15] = biological target: Fuc(a1-2)Gal6S(b1-3)GlcNAc
# Method in brief: as §1
# [16] = biological target: Fuc(a1-2)Gal6S(b1-3)GlcNAc6S
# Method in brief: as §1
# Fuc(a1-2)Gal6S(b1-4)Glc = biological target: Fuc(a1-2)Gal6S(b1-4)Glc
# Method in brief: as §1
# [17] = biological target: Fuc(a1-2)Gal6S(b1-4)Glc6S
# Method in brief: as §1
# Fuc(a1-2)[Gal(a1-3)]Gal = biological target: Fuc(a1-2)[Gal(a1-3)]Gal
# Method in brief: as §1
# [18] = biological target: Fuc(a1-2)[Gal(a1-3)]Gal(b1-3)GalNAc
# Method in brief: as §1
# [19] = biological target: Fuc(a1-2)[Gal(a1-3)]Gal(b1-3)GalNAc(b1-3)Gal(a1-4)Gal(b1-4)Glc
# Method in brief: as §1
# [20] = biological target: Fuc(a1-2)[Gal(a1-3)]Gal(b1-3)GlcNAc
# Method in brief: as §1
# [21] = biological target: Fuc(a1-2)[Gal(a1-3)]Gal(b1-3)GlcNAc(b1-2)Man(a1-3)[Fuc(a1-2)[Gal(a1-3)]Gal(b1-3)GlcNAc(b1-2)Man(a1-6)]Man(b1-4)GlcNAc(b1-4)GlcNAc
# Method in brief: as §1
# [22] = biological target: Fuc(a1-2)[Gal(a1-3)]Gal(b1-3)GlcNAc(b1-2)Man(a1-3)[Fuc(a1-2)[Gal(a1-3)]Gal(b1-3)GlcNAc(b1-2)Man(a1-6)]Man(b1-4)GlcNAc(b1-4)[Fuc(a1-6)]GlcNAc
# Method in brief: as §1
# [23] = biological target: Fuc(a1-2)[Gal(a1-3)]Gal(b1-3)GlcNAc(b1-3)GalNAc
# Method in brief: as §1
# [24] = biological target: Fuc(a1-2)[Gal(a1-3)]Gal(b1-3)GlcNAc(b1-6)GalNAc
# Method in brief: as §1
# [25] = biological target: Fuc(a1-2)[Gal(a1-3)]Gal(b1-4)Glc
# Method in brief: as §1
# [26] = biological target: Fuc(a1-2)[Gal(a1-3)]Gal(b1-4)GlcNAc
# Method in brief: as §1
# [27] = biological target: Fuc(a1-2)[Gal(a1-3)]Gal(b1-4)GlcNAc(b1-2)Man
# Method in brief: as §1
# [28] = biological target: Fuc(a1-2)[Gal(a1-3)]Gal(b1-4)GlcNAc(b1-2)Man(a1-3)[Fuc(a1-2)[Gal(a1-3)]Gal(b1-4)GlcNAc(b1-2)Man(a1-6)]Man(b1-4)GlcNAc(b1-4)GlcNAc
# Method in brief: as §1
binder,measurement,setting,value
B1,glycan array binding signal (z-score),[1],-0.371
same,glycan array binding signal (z-score),[2],-0.239
same,glycan array binding signal (z-score),[3],-0.049
same,glycan array binding signal (z-score),[4],-0.364
same,glycan array binding signal (z-score),[5],-0.147
same,glycan array binding signal (z-score),[6],-0.303
same,glycan array binding signal (z-score),[7],-0.363
same,glycan array binding signal (z-score),[8],-0.238
same,glycan array binding signal (z-score),[9],-0.121
same,glycan array binding signal (z-score),[10],-0.427
same,glycan array binding signal (z-score),[11],-0.3
same,glycan array binding signal (z-score),[12],3.47
same,glycan array binding signal (z-score),[13],-0.374
same,glycan array binding signal (z-score),[14],-0.479
same,glycan array binding signal (z-score),[15],-0.437
same,glycan array binding signal (z-score),[16],-0.345
same,glycan array binding signal (z-score),Fuc(a1-2)Gal6S(b1-4)Glc,-0.44
same,glycan array binding signal (z-score),[17],-0.226
same,glycan array binding signal (z-score),Fuc(a1-2)[Gal(a1-3)]Gal,-0.405
same,glycan array binding signal (z-score),[18],-0.362
same,glycan array binding signal (z-score),[19],-0.294
same,glycan array binding signal (z-score),[20],-0.384
same,glycan array binding signal (z-score),[21],-0.122
same,glycan array binding signal (z-score),[22],-0.236
same,glycan array binding signal (z-score),[23],-0.33
same,glycan array binding signal (z-score),[24],-0.326
same,glycan array binding signal (z-score),[25],-0.399
same,glycan array binding signal (z-score),[26],-0.433
same,glycan array binding signal (z-score),[27],-0.404
same,glycan array binding signal (z-score),[28],8.53

# From the supplement of paper PMC8728848
